Data from the supplement of paper PMC11417369.
± gives the standard deviation of the averaged measurements. The list shows a part of the results.

What follows are sequences tested on PfAP2-G AP2 domain (GST-tagged) (assay: gcPBM binding intensity (ln(normalized median fluorescence intensity)); higher = stronger DNA binding).
Method in brief: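 Alexa488 anti-GST antibody, scanned at 488 nm, detected GST-tagged P. falciparum DNA-binding domains that had been expressed in E. coli and incubated for 1 h on an Agilent 4 × 180k array. The array carried primer-extended double-stranded 36-bp intergenic genomic probes and negative controls. Binding intensity is the highest Masliner-normalised natural-log median intensity across replicate spots of either orientation of each probe.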

Sequence	gcPBM binding intensity (ln)
AAAAATCATTTAAGAACACACAAATATTTCCATTAA [CACACA_site1488]	9.9 ± 0.014
TACATAAATTTTAATACATGCAAATAAAATATATAA [TGCATGCA_site131]	9.84 ± 0.24
ATATATATATATATATGTACATACAATTATATTCTC [XGTACX_site1133]	11.2 ± 0.61
TTTTTTGTTACAACAGTGCAAAAAAACCTTAATGTT	10.1 ± 0.24
ATAACGAACACTATTACACACATACATACATATGTA [CACACA_site5092]	10.17 ± 0.099
AAAAAAAAAAAAAACACACACACATAGACCTCCAAT [CACACA_site3563]	10.4 ± 0.26
TTTTCTGTGTTTACATGTACGAAAGATTAATATTAT [XGTACX_site5214]	10.9 ± 0.58
ATTTGATAGACACATGCACACATGCAATACTTTATT [CACACA_site5633]	10.1 ± 0.042
TTATCATATCATGGAAGTACAAATAAAATATATAAC [XGTACX_site1608]	11.3 ± 0.81
TCTTTATTATTCGCCACACACATATAAATATAAATA [CACACA_site7441]	10.3 ± 0.26
ATAATTTTGTATAATTGTACATTATTTTAAATAAAT [XGTACX_site7952]	11 ± 0.5
AAAACATAACATTGTTGTACTACTAATAAAATAAGT [XGTACX_site6149]	11.5 ± 0.88
TTTTTTTTTTTTTTTAAACACACGGTGTGAAAATTA [CACACA_site3818]	9.8 ± 0.5
ATCAATCATGGTTTTACACACACATGCATGTGAAAA [CACACA_site1350]	10.1 ± 0.21
TATATAAAAATATACACACACAAATGTATATATATA [CACACA_site220]	9.9 ± 0.26
TACATACATACATACACACACATATAGATTTATATA [CACACA_site6999]	10.4 ± 0.15
ATATATATATATATATCACACATTAATAATATATAT [CACACA_site5081]	9.96 ± 0.35
ATAATTACATTCCATACACACATATATTTAAAGGTT [CACACA_site7403]	10 ± 0.042
TTCTTGTTCCTGAAAGTGCATATAACAAAAATAACA [GTGCAC_site9635]	10.4 ± 0.42
TTATATTTGATAGTTTGTACATATAATTATTATCAT [XGTACX_site5676]	11 ± 0.57
TATCTTCAAGTATGTACACACTATATATAATAAAAT [CACACA_site5368]	11.4 ± 0.93
AATGATATATTTAAATGTACACATGAAATATAATAT [XGTACX_site2678]	11.4 ± 0.74
TGTAATATATGTATTGCACACCTATAACCATTATTT [CACACA_site8422]	10 ± 0.14

Sequence	gcPBM binding intensity (ln)
TATAAGTGCCGTTATACACACGTTATATAAATATTA [CACACA_site4401]	9.93 ± 0.057
ATAATTATATTTAGTGGTACTACTTTTGATAATTAG [XGTACX_site6562]	11.5 ± 0.78
AATTAAAAGTGAAGAGTGCATAGAATTTTTTACTTT [GTGCAC_site9973]	9.955 ± 0.007
TTTAATTTTCAATGGCGTACATATAAAATATTATAT [XGTACX_site1672]	11.5 ± 1
AAATGTGAAAAAGAGTGTACCCGACTTGAAATTAAG [XGTACX_site8621]	11.5 ± 1
AGTAGAATATCCCCTACACACCCAAGTAATTTACAA [CACACA_site6708]	10.1 ± 0.12
ACATATAGATAAATATGTACATATATATATATATAT [XGTACX_site1806]	11.1 ± 0.64
GATGAATAATATGTATGTACATATGCATTATGATGT [XGTACX_site7655]	11 ± 0.56
ATATGCACTTTTTGCACACGTATGAATAACAAAATA [CACACA_site1810]	10.6 ± 0.43
TTTTGGATGAACAGTACATGCAAAAACAAACTTGTA [TGCATGCA_site16]	10.8 ± 0.37
TGCTTCTTTTAAAAACATGTTTGTATTCATTTTATA [CACACA_negctrl_site1627]	10.04 ± 0.092
ACAAAAAGTTACATACGTACGTAAAATTGTAATAAA [XGTACX_site2358]	11.3 ± 0.67
ATAATACCATTAATTTGTACATATATATTATATATA [XGTACX_site4345]	10.9 ± 0.49
ATTATATTATATATATGTACATATATATATCATAAT [XGTACX_site1]	11.1 ± 0.66
TAATTATACTTATTTTGTACGCAATATTTAAAATAA [XGTACX_site8516]	11.4 ± 0.93
TCTTCTTTAAAAGAGGTGCACTATATAATGTGATTA [GTGCAC_site9431]	10.4 ± 0.38
TTTTTAACGTATAAGGTGCACTGTATATGGTACTCA	10.9 ± 0.69
ATTTCTCTATCGTAATGTACAAAAAAAAGGAAAAAA [XGTACX_site1323]	10.9 ± 0.71
ACATATAAATGATATGTACACACATTTATATATATA [CACACA_site9152]	11.4 ± 0.72
TACACAAAAATTTATACACACACATATATAATATAT [CACACA_site7931]	10.1 ± 0.12
TGATTATATATAAATGTATGCATGTCTATTATGCTA [TGCATGCA_site543]	9.73 ± 0.12
TCTTTTATATTTTTTTGTACACAAGAATAAAGAAAA [XGTACX_site3394]	11.4 ± 0.98
GACAAATGAAAAGATTGTACATGTATTTGAAGATTA [XGTACX_site6775]	11 ± 0.58

Sequence	gcPBM binding intensity (ln)
TATATATATATATAGGTGCAATATTGAAAAAATATC [GTGCAC_site9535]	10.2 ± 0.31
AAAGTAATATATAATACATGCGTAAATATTTATGTA [TGCATGCA_site254]	9.86
TATATATATATATATTGTACACATACATGTAGTTTT [XGTACX_site4848]	11.5 ± 0.82
GAGTTTTAATGTAATAGTACTTTAATTATTATATAT [XGTACX_site4527]	10.9 ± 0.61
TTTTTTTTTTATTCATGTACGTATTTAAATAATTCT [XGTACX_site2651]	11.4 ± 0.76
ATCTTTTATATATTCACACATAAAATTATACAGATA [CACACA_site5277]	10.1 ± 0.2
AATAAATAAATAAATATATATATATATATATATATA [CACACA_negctrl_site708]	10.2 ± 0.91
ATATATATATATAATGCACACATTATAAATTATGTA [CACACA_site5802]	9.97 ± 0.62
TGTATATACATAAAGTGTACGTATATTTATATATAT [XGTACX_site4320]	11.6 ± 0.98
TATTTTTATTTTACATTATTTGTTTATAATTCTTAA [CACACA_negctrl_site1358]	9.845 ± 0.007
AAAAAAAAAAAAAACACACAAACAAATGAATAAATA [CACACA_site3300]	9.91 ± 0.16
ATAAAAAATTAGGACTGTACATAATTTTTGTGATTT [XGTACX_site2857]	11.2 ± 0.7
TTTATTTTAAATTTACGTACATAATTAATCATATTT [XGTACX_site7529]	11.5 ± 0.97
ATGAAATTTATATCATGTACATACAAGAGAAAAAAA [XGTACX_site3326]	11.1 ± 0.68
AAAATTATAAAATGGGCACACATGAATATTGTAGTA [CACACA_site5261]	10.5 ± 0.29
GTATAATAAATGATAGCACACATATGTACTTATATA [CACACA_site8188]	11.5 ± 0.85
GACTACACACAAGGGTGTACATATATATTATATATA [XGTACX_site2247]	11.3 ± 0.85
TTAACTTATTTGTAAAGTACATTAATAAAAAGAAAA [XGTACX_site1588]	11.1 ± 0.42
AGGTTATAATTGTTTTCACACATTTAAAAATGTTAT [CACACA_site5097]	9.98 ± 0.042
TTATATATTTCTATTGCACACTATATTTTATGAAGA [CACACA_site2910]	10.1 ± 0.15
TATATATATAAGGATAGTACATATATTTATATGATT [XGTACX_site4954]	10.8 ± 0.52
AAAATAATCTTATGCACACCAAAAATTTATATAATC [CACACA_site1235]	10.1 ± 0.12
TTATAAAAATACAGTTAACACACATGTGTATATATA [CACACA_site9257]	10.4 ± 0.25

Sequence	gcPBM binding intensity (ln)
GATCGCATGAAATGAACACACATAAAAAAAATATAC [CACACA_site4087]	10.1 ± 0.17
AAAAAAAAAATATACACACACACATACCCATAAATA [CACACA_site5981]	10.4 ± 0.23
AAAACACAATTTATTACACACATATATTATAGATTA [CACACA_site6780]	9.815 ± 0.064
TAATGCAACATTTATGTGCACATAAATATTTTTTAA	10.6 ± 0.45
CTTTGTAGTTGGTCCACACACATATCTGGAAGAATA [CACACA_site4834]	11.3 ± 1.1
ATATTAAATATATACAGTACACATTACAATACAATA [XGTACX_site3221]	11.2 ± 0.59
TAATATTAAAAAGAGACACACAAAAATATTAAAAAA [CACACA_site3120]	10.1 ± 0.11
TTACACCTTAGGATCTGTACAAATATATGACAAATC [XGTACX_site4333]	10.7 ± 0.42
AAGGTTTTGGGTTTTAATTAATTTAATATGATTATA [XGTACX_negctrl_site147]	10 ± 0.18
TAAGCGTTTTTTAAAACACACATAAGAACTAAATGA [CACACA_site1670]	10.2 ± 0.18
TTTCTTAAACCGTACAGTACACACCTTTATAATGTT [XGTACX_site434]	11.3 ± 0.74
TTTTTTTTTTTTTGTAGTACATACTATTTTATTAAT [XGTACX_site950]	11.5 ± 1
CGACTTTTAAAATATACACACATATAAATAAATATA [CACACA_site6523]	9.94 ± 0.085
TTACAATATAATAAATGTACATATAACAAATATATA [XGTACX_site2199]	11.2 ± 0.65
TAAAAAATTATATTCACACACATACACATATATATA [CACACA_site545]	9.91 ± 0.14
AGAATTATATACACAAGTACATAATGACATATATAT [XGTACX_site5617]	11.1 ± 0.89
TAGATGTATTTTTAAAGTACTTTTTAATATATAATC [XGTACX_site1431]	11.2 ± 0.8
CATCTGGTATCTAATAGTACATATATATAATATCTT [XGTACX_site2774]	11.1 ± 0.52
AACAAAAGAAAAAAATATATATATTCGTCCTATTTT [CACACA_negctrl_site444]	9.85 ± 0.099
ATTTTTTTTTTTTATGGTACACACACGCGTATGGTT [XGTACX_site3888]	11.5 ± 1.1
TATATATGCATTAAAGTGTTTTTTTTTTTTTTTTTT [CACACA_negctrl_site1353]	10.4 ± 0.25
